# Some of the results follow. Antibody binding of pooled human sera (four to six donors per pool; dilution not stated) to peptides of the Trypanosoma cruzi antigen TSSA on microarrays. Quantile-normalised fluorescence in arbitrary units, mean of duplicate arrays; higher = more binding. No active / inactive call. The uninfected pools are read here as the healthy donors of the same country. The strongest signals lie near the top of the scale (about 60,000).
# Legend:
# Assay in all cases: antibody binding signal (normalised fluorescence) (arbitrary fluorescence units); higher = stronger serum antibody binding to peptide
# [1] = test system: pooled sera of chronic Chagas disease patients, Argentina
# Method: (§1)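 Microarray of 15-residue peptides over residues 30-55 of Trypanosoma cruzi TSSAII, each with 1 to 10 substitutions at naturally variable positions, probed with one serum pool per country.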
# [2] = test system: pooled sera of chronic Chagas disease patients, Bolivia
# Method: as §1
# [3] = test system: pooled sera of chronic Chagas disease patients, Brazil
# Method: as §1
# [4] = test system: pooled sera of chronic Chagas disease patients, Colombia
# Method: as §1
# [5] = test system: pooled sera of chronic Chagas disease patients, Mexico
# Method: as §1
# [6] = test system: pooled sera of chronic Chagas disease patients, USA
# Method: as §1
# [7] = test system: pooled sera of uninfected people, Argentina
# Method: as §1
# [8] = test system: pooled sera of uninfected people, Bolivia
# Method: as §1
# [9] = test system: pooled sera of uninfected people, Brazil
# Method: as §1
# [10] = test system: pooled sera of uninfected people, Colombia
# Method: as §1
# [11] = test system: pooled sera of uninfected people, Mexico
# Method: as §1
# [12] = test system: pooled sera of uninfected people, USA
# Method: as §1
Sequence,antibody binding signal [1],antibody binding signal [2],antibody binding signal [3],antibody binding signal [4],antibody binding signal [5],antibody binding signal [6],antibody binding signal [7],antibody binding signal [8],antibody binding signal [9],antibody binding signal [10],antibody binding signal [11],antibody binding signal [12]
GKDNKAATGEAPSPP,28000,19000,34600,5980,6720,24500,264,310,128,293,91.8,108
KENKPAAGETPSQSG,260,585,21600,362,564,3650,191,398,179,254,286,124
PSGTENKPATGETPS,44500,45400,48100,793,1880,28900,1550,1290,564,330,1970,638
GKEKKTAAGEAPSPP,2020,524,461,2320,2420,5360,136,104,83.8,414,97.3,125
DKKTAAGGTPSPPGA,779,239,175,10500,426,1760,150,144,793,325,268,248
GTDNKAATGEAPSQP,25200,41200,44700,152,277,28700,199,519,1180,120,124,82.3
PPSGKENKTAAGGAP,9060,593,4600,3920,3950,4060,3480,1370,200,695,464,407
DKKPATGEAPSPSGA,48400,43600,47700,211,228,44300,956,682,290,267,219,211
TPPSGKDKKTATGEA,6380,538,1080,269,37900,700,202,259,219,194,113,109
DKKAATGEAPSQSGA,20000,17900,31100,190,402,24500,638,85.8,163,805,149,240
GTENKTAAGETPSPS,28700,621,732,1360,1240,3100,186,384,158,247,412,1720
SGKEKKTAAGGTPSQ,2420,295,2050,6630,4510,5240,138,124,412,109,169,120
GTENKAATGGTPSQP,39000,1640,10800,1180,979,1930,264,299,301,229,1040,116
GTDNKTAAGEAPSPP,212,342,28500,227,278,9430,147,545,1190,177,114,134
DKKTAAGEAPSQPGA,5230,11400,36500,380,467,5650,312,249,160,1340,682,166
KTATGGAPSPSGASS,671,260,405,497,2120,328,414,156,148,110,132,228
TPPSGKDNKPAAGET,5600,14900,29600,282,23900,14900,343,884,298,316,356,218
TDKKTATGEAPSQPG,17500,28400,39200,232,1240,21200,240,104,498,98.5,184,127
KAATGGTPSPSGASS,796,672,384,454,2240,203,297,114,219,156,101,213
PPSGTDKKAATGGTP,9460,1460,21200,3750,30100,2600,399,250,573,1030,1340,248
DNKAATGGTPSQPGA,501,1110,7130,1100,411,362,451,182,706,371,1110,137
KAATGETPSQPGASS,7070,5280,41300,202,165,9250,159,1130,320,204,175,259
KEKKTAAGEAPSQPG,1830,2280,25100,291,173,4100,207,104,97.4,364,81.2,80.4
KPATGGAPSQPGASS,813,4920,16600,234,352,816,311,919,145,100,136,182
NKAATGETPSPSGAS,1450,3510,19900,293,511,10700,462,883,299,358,212,1710
